The campaign covered roughly 390,000 compounds. About 930 (0.24%) were called active. The shares of active, inactive and inconclusive entries below differ from those in the screen. Calls follow the shape of the dose curve; as a rule, active = well fitted activation curve with a large enough effect; inconclusive = small, poorly fitted or top-dose-only effect; inactive = no such curve, though single readings can be large or run the other way. Where the call is inconclusive, the potency comes from a doubtful curve fit.
experiment: qHTS for Suppressors of FUS Proteinopathy: Primary screen using FUS-linked yeast assay; also: nearly all actives have a fitted effect of over 55% in size;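 as to growth rescue (activation): plate controls were DMSO vehicle for no effect and reference control for full effect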; conditions: S. cerevisiae FUS-expressing, OD600, 24 h; Potency: growth rescue; growth rescue (activation): at 76.6 µM (top of the series)
Method in brief: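 FUS-expressing yeast, raffinose-pregrown, induced in 2% galactose minimal medium at OD 0.005; compounds in a dilution series, 24hr at 30C. Growth restoration read as absorbance at 600 nm. CP55940 positive control, DMSO negative.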
Potency is read from the fitted curve at half-maximal effect; tags tell the direction and shape of the fitted curve.

Compound | Potency | growth rescue (activation)
Oc1ccc(C[C@H]2CNC(=S)N2CC2CCCN2C[C@H](Cc2ccc(O)cc2)N2C[C@H](Cc3ccc(O)cc3)N(CC3CCCCCC3)C2=S)cc1 (stereo partly specified) | inconclusive: 28.2 µM [activator, single point] | –
CCOc1ccc(N(Cc2ccccc2)C(=O)c2nc(SCC)ncc2Cl)cc1 | inconclusive: 10 µM [activator, partial curve] | –
O=C(COc1ccc(Cl)cc1Cl)NCCC1=CCCCC1 | inconclusive: 17.8 µM [activator, single point] | –
CC(=O)C1=C(O)C(=O)N(Cc2ccccc2)C1c1cccc([N+](=O)[O-])c1 (stereo unspecified) | inconclusive: 31.6 µM [activator, partial curve, poor fit] | –
COc1ccc(CCN2CCC(CNC(=O)c3cnn(-c4ccc(C)cc4)c3C3CCN(C(=O)OC(C)(C)C)CC3)CC2)cc1 | inconclusive: 8.91 µM [activator, partial curve] | –
CC(=O)Nc1ccc(S(=O)(=O)NCc2ccc3[nH]c(C)cc3c2)cc1 | inconclusive: 50.1 µM [activator, single point] | –
CCOC(=O)Cc1nn(Cc2nc(-c3ccc(C)cc3)cs2)c(=O)c2ccccc12 | inconclusive: 50.1 µM [activator, single point] | –
COCCN(C(=O)COC(=O)COc1ccc2c(c1)CCC2)c1c(N)n(Cc2ccccc2)c(=O)[nH]c1=O | – | inactive: 12%
O=c1[nH]c(=S)[nH]c2scc(-c3ccc(Br)cc3)c12 | inconclusive: 10 µM [activator, partial curve, poor fit] | –
Cc1ccc(S(=O)(=O)N2CCc3cc(C(=O)N(C)Cc4ccccc4)ccc32)cc1 | inconclusive: 28.2 µM [activator, partial curve] | –
CCc1sc(Nc2cccc(C)c2)nc1-c1cc2cccc(OC)c2oc1=O | inconclusive: 35.5 µM [activator, single point] | –
COC(=O)[C@@]1(Cc2ccc(OC)cc2)[C@H]2c3cc(C(=O)N4CCCC4)n(Cc4ccc(Cl)c(C(F)(F)F)c4)c3C[C@H]2CN1C(=O)c1ccccc1 | inconclusive: 12.6 µM [activator, partial curve, poor fit] | –
COc1cc(C(=O)OC2CCOC2=O)cc(Cl)c1OC (stereo unspecified) | – | inactive: 15.5%
Cc1ccccc1OCC(O)Cn1c(=N)n(Cc2ccccc2)c2ccccc21 (stereo unspecified) | inconclusive: 50.1 µM [activator, single point] | –
CCN1C(=O)[C@H]2[C@@H](c3ccc(-c4ccc(F)cc4)cc3)N[C@@](Cc3ccccc3)(C(=O)OC)[C@H]2C1=O | active: 11.2 µM | –
Fc1ccc(CCn2c(Cn3c(-c4cnccn4)nc4ccccc43)nc3ccccc32)cc1 | inconclusive: 31.6 µM [activator, single point] | –
NC(=O)[C@H]1CC2(CC(c3cccc(NC(=O)CC(c4ccccc4)c4ccccc4)c3)=NO2)CN1C(=O)C(c1ccccc1)c1ccccc1 (stereo partly specified) | inconclusive: 25.1 µM [activator, single point] | –
Cc1ccccc1-n1c(SCC(=O)Nc2ccc(Cl)cc2Cl)nc(O)cc1=O | – | inactive: 9.98%

Compound | Potency | growth rescue (activation)
CCCCC1=CC2=C(c3ccco3)C(=O)C(C)(OC(=O)c3ccc(OC)cc3)C(=O)C2=CN1CCc1ccccn1 (stereo unspecified) | inconclusive: 31.6 µM [activator, single point] | –
COc1ccc(NC(=O)CSC2=Nc3ccccc3C3=NC(CC(=O)NCc4ccccc4OC)C(=O)N23)cc1Cl (stereo unspecified) | inconclusive: 22.4 µM [activator, single point] | –
O=C(COc1ccccc1Cl)Nc1cccc(S(=O)(=O)N2CCCC2)c1 | – | inactive: 31.2%
C#CCNC(=O)C[C@H]1C[C@@]2(C(=O)OC)C(=C[C@H](C(C)C)O[C@@H]2C2CC2)N(Cc2ccc(Cl)cc2Cl)C1=O | inconclusive: 28.2 µM [activator, single point] | –
COc1ccc(CNC(=O)C[C@H]2C[C@H](C(=O)N3CCOCC3)[C@@]3(CCC4CCCC4)c4[nH]c5cc(CCC(=O)N(C)C)ccc5c4CCN3C2=O)cc1OC | inconclusive: 10 µM [activator, full curve] | –
O=C1C(NS(=O)(=O)c2cccs2)=C(N2CCN(c3cccc(C(F)(F)F)c3)CC2)C(=O)c2ccccc21 | inconclusive: 50.1 µM [activator, partial curve, poor fit] | –
Cc1ccc(-c2nn(-c3ccc(F)cc3F)c3c2cnc2ccc(F)cc23)cc1 | – | inactive: -22.5%
CN1OC[C@@H]2CN(Cc3cc(Cl)cc(Cl)c3)[C@H](c3cccc(Br)c3)C[C@@H]21 | – | inactive: 43.3%
CCN(CC)c1cc(C)c2cc(NC(=O)/C=C/c3ccccc3Cl)ccc2n1 | inconclusive: 50.1 µM [activator, single point] | –
O=C(NCc1ccco1)c1cccc2c1C(=O)c1ccc(N3CCC(Cc4ccccc4)CC3)cc1S2(=O)=O | inconclusive: 8.91 µM [activator, partial curve, poor fit] | –
O=C(O)c1ccc(NCc2nc3ccccc3n2CCOc2ccccc2Cl)cc1 | inconclusive: 50.1 µM [activator, single point] | –
CC1CCCCN1S(=O)(=O)c1ccc(C(=O)Nc2nnc(C3=COCCO3)o2)cc1 (stereo unspecified) | inconclusive: 35.5 µM [activator, single point] | –
CCOc1ccc(NC(=O)CN(C)C(=O)c2sc3ccccc3c2Cl)cc1OCC | inconclusive: 7.94 µM [activator, partial curve, poor fit] | –
Cc1nc(-c2ccc(Cl)cc2)sc1CCNC(=O)C(=O)Nc1ccc2c(c1)OCCO2 | – | inactive: -13.5%
Cc1ccc(C)c(N2CCN(C(=O)CCCn3c(=S)[nH]c4cc5c(cc4c3=O)OCO5)CC2)c1 | inconclusive: 50.1 µM [activator, single point] | –
CCC(NC(=O)c1ccccc1NC(=O)C(C)(C)C)C(=O)N1CC(C)OC(C)C1 (stereo unspecified) | inconclusive: 50.1 µM [activator, single point] | –
COCCn1c(=O)[nH]c2cc(C(=O)N3CCN(c4ccc(Cl)cc4)CC3)ccc2c1=O | inactive | –
N#CC1=C(N)SC(N)=C(C#N)C1c1cccc(Oc2ccccc2)c1 | inconclusive: 17.8 µM [activator, partial curve, poor fit] | –
